According to the supplement of paper PMC8007513:
Structures can show the parent of a compound that is named as a salt. ± gives the standard error. The whole screen tested about 1,300 compounds, of which about 130 (10%) showed an effect of 50% or more. Only a part is listed here, and it is no random draw.

Test system: Trichoderma virens ATCC 9645
Assay: growth yield (OD600) with compound + IPBC relative to untreated control; higher = less growth inhibition
Conditions: compound concentration: 100 uM, IPBC concentration: 200 ng/ml
Method in brief: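 Growth appears as means of duplicate screens, relative to the control containing neither agent. To obtain it, OD600 was read on a BioTek EL800 at 40 h and 72 h. The cultures were 100 μl aliquots in 96-well plates at 30 °C, holding Trichoderma virens ATCC 9645 spores at 15,000 spores ml^−1 in potato dextrose broth, library compounds at 100 μM final, and, in some wells, a biocide at 200 ng ml^−1.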

SMILES | growth yield (40 h) [%] | growth yield (72 h) [%]
CN1CCC(=C2c3ccccc3C=Cc3ccccc32)CC1 [Cyproheptadine hydrochloride] + CCCCNC(=O)OCC#CI [3-iodo-2-propynyl butylcarbamate (IPBC)] | 75.4 ± 1.4 | 93.9 ± 2.6
CO[C@H]1/C=C/O[C@@]2(C)Oc3c(C)c(O)c4c(O)c(c(/C=N/N5CCN(C6CCCC6)CC5)c(O)c4c3C2=O)NC(=O)/C(C)=C\C=C\[C@H](C)[C@H](O)[C@@H](C)[C@@H](O)[C@@H](C)[C@H](OC(C)=O)[C@@H]1C [Rifapentine] + CCCCNC(=O)OCC#CI [3-iodo-2-propynyl butylcarbamate (IPBC)] | 90.2 ± 0.95 | 94.5 ± 2.6
CC(C)(C)NC[C@@H](O)COc1cccc2c1CCCC2=O [(+) -Levobunolol hydrochloride] + CCCCNC(=O)OCC#CI [3-iodo-2-propynyl butylcarbamate (IPBC)] | 97.8 ± 16 | 99.1 ± 12
C[C@H]1O[C@H](O[C@H]2[C@H](O)[C@@H](O)[C@@H](O[C@H]3[C@H](O)[C@@H](O)C(O)O[C@@H]3CO)O[C@@H]2CO)[C@H](O)[C@@H](O)[C@@H]1N[C@H]1C=C(CO)[C@@H](O)[C@H](O)[C@H]1O (stereo partly drawn) [Acarbose] + CCCCNC(=O)OCC#CI [3-iodo-2-propynyl butylcarbamate (IPBC)] | 93.7 ± 0.95 | 104.5 ± 0.84
NNCCc1ccccc1 [Phenelzine sulfate] + CCCCNC(=O)OCC#CI [3-iodo-2-propynyl butylcarbamate (IPBC)] | 112 ± 2.9 | 110 ± 4.3
CC(C)c1c(CN(C)C(C)Cc2ccccc2)n(C)n(-c2ccccc2)c1=O (stereo not drawn) [Famprofazone] + CCCCNC(=O)OCC#CI [3-iodo-2-propynyl butylcarbamate (IPBC)] | 93.2 ± 12 | 96.7 ± 8.2
CCCc1cc(C(N)=S)ccn1 [Prothionamide] + CCCCNC(=O)OCC#CI [3-iodo-2-propynyl butylcarbamate (IPBC)] | 93.7 ± 2.2 | 98.79 ± 0.84
N=C(NCCCCCCNC(=N)NC(=N)Nc1ccc(Cl)cc1)NC(=N)Nc1ccc(Cl)cc1 [Chlorhexidine] + CCCCNC(=O)OCC#CI [3-iodo-2-propynyl butylcarbamate (IPBC)] | 4.61 ± 0.16 | 3.67 ± 0.32
Clc1ccc(CCC(Cn2ccnc2)Sc2c(Cl)cccc2Cl)cc1 (stereo not drawn) [Butoconazole nitrate] + CCCCNC(=O)OCC#CI [3-iodo-2-propynyl butylcarbamate (IPBC)] | 3.18 | 2.62 ± 0.1
N#Cc1ccc(C(c2ccc(C#N)cc2)n2cncn2)cc1 [Letrozole] + CCCCNC(=O)OCC#CI [3-iodo-2-propynyl butylcarbamate (IPBC)] | 98.6 ± 8.1 | 98.5 ± 1.6
C[C@@H]1C[C@H]2[C@@H]3C[C@H](F)C4=CC(=O)C=C[C@]4(C)[C@@]3(F)[C@@H](O)C[C@]2(C)[C@@]1(O)C(=O)CO [Flumethasone] + CCCCNC(=O)OCC#CI [3-iodo-2-propynyl butylcarbamate (IPBC)] | 95.6 ± 4.5 | 97.8 ± 4.5
O=C(O)c1cn(-c2ccc(F)cc2)c2cc(N3CCNCC3)c(F)cc2c1=O [Sarafloxacin] + CCCCNC(=O)OCC#CI [3-iodo-2-propynyl butylcarbamate (IPBC)] | 81.2 ± 6.8 | 98.2 ± 5.5
O=C1c2c(O)cccc2Cc2cccc(O)c21 [Anthralin] + CCCCNC(=O)OCC#CI [3-iodo-2-propynyl butylcarbamate (IPBC)] | 71.8 ± 3.8 | 82.4 ± 1.3
COc1cc(C(=O)OCCCN2CCCN(CCCOC(=O)c3cc(OC)c(OC)c(OC)c3)CC2)cc(OC)c1OC [Dilazep dihydrochloride] + CCCCNC(=O)OCC#CI [3-iodo-2-propynyl butylcarbamate (IPBC)] | 117 ± 7.9 | 125 ± 2.4
CN(C)CCCN1c2ccccc2Sc2ccc(C(F)(F)F)cc21 [Triflupromazine hydrochloride] + CCCCNC(=O)OCC#CI [3-iodo-2-propynyl butylcarbamate (IPBC)] | 46.4 ± 2.9 | 81.3 ± 4.3
CC(=O)Oc1ccccc1C(=O)Nc1ncc([N+](=O)[O-])s1 [Nitazoxanide] + CCCCNC(=O)OCC#CI [3-iodo-2-propynyl butylcarbamate (IPBC)] | 62.1 ± 1.1 | 88.7 ± 1.5
CCN(CC)CCOC(=O)C1(C2CCCCC2)CCCCC1 [Dicyclomine hydrochloride] + CCCCNC(=O)OCC#CI [3-iodo-2-propynyl butylcarbamate (IPBC)] | 82.6 ± 0.64 | 93.7 ± 1.1
CCCCC(O)c1ccccc1 (stereo not drawn) [Fenipentol] + CCCCNC(=O)OCC#CI [3-iodo-2-propynyl butylcarbamate (IPBC)] | 75.3 ± 1.9 | 87 ± 3.1
C[N+]12CCC(CC1)C(OC(=O)C(O)(c1ccccc1)c1ccccc1)C2 (stereo not drawn) [Clidinium bromide] + CCCCNC(=O)OCC#CI [3-iodo-2-propynyl butylcarbamate (IPBC)] | 95.8 ± 11 | 95.8 ± 6.6
CC(=O)Oc1cc(C(C)C)c(OCCN(C)C)cc1C [Moxisylyte hydrochoride] + CCCCNC(=O)OCC#CI [3-iodo-2-propynyl butylcarbamate (IPBC)] | 83.87 ± 0.32 | 89.56 ± 0.84
CC(c1cc2ccccc2s1)N(O)C(N)=O (stereo not drawn) [Zileuton] + CCCCNC(=O)OCC#CI [3-iodo-2-propynyl butylcarbamate (IPBC)] | 89.1 ± 3.3 | 90.8 ± 2.1
COc1cc(C)c(/C=C/C(C)=C/C=C/C(C)=C/C(=O)O)c(C)c1C [Acitretin] + CCCCNC(=O)OCC#CI [3-iodo-2-propynyl butylcarbamate (IPBC)] | 94.7 ± 5.4 | 96.4 ± 4.7
CC(C)OC(=O)CCC/C=C\C[C@@H]1[C@@H](CC[C@@H](O)CCc2ccccc2)[C@H](O)C[C@@H]1O [Latanoprost] + CCCCNC(=O)OCC#CI [3-iodo-2-propynyl butylcarbamate (IPBC)] | 90.5 ± 1.9 | 93 ± 3.9
C[N+]1(C)CCC(=C(c2ccccc2)c2ccccc2)CC1 [Diphemanil methylsulfate] + CCCCNC(=O)OCC#CI [3-iodo-2-propynyl butylcarbamate (IPBC)] | 84.5 ± 1.6 | 91.87 ± 0.42
